Test results from PubChem BioAssay AID504937 (National Center for Advancing Translational Sciences (NCATS), 2011).
Screen size: about 340,000 compounds; about 20 (0.006%) were called active. The shares of active, inactive and inconclusive entries below differ from those in the screen. The call rests on the fitted dose curve; in most records, active means well fitted inhibition curve with a large enough effect; inconclusive means small, poorly fitted or top-dose-only effect; inactive means no such curve, though single readings can be large or run the other way. A potency beside an inconclusive call is a rough fit, not a confirmed value.

molecular target: Sphingomyelin phosphodiesterase (Homo sapiens) (UniProt P17405); assay: Inhibitors of Secretory Acid Sphingomyelinase (S-ASM): qHTS; conditions: placental ASM, HMU-PC fluorogenic substrate (series up to 57.5 µM), 60 min
Method in brief: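 Fluorescence read-out (Ex 386 nm, Em 447 nm) after stopping the reaction at pH 10. Enzyme: ASM from human placenta; substrate HMU-PC0, 9 uM final; 60 min, 37 °C. Compound preincubation 10 min, ambient temperature.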
Potency means the concentration at half of the fitted maximal effect; tags describe the fitted curve by direction and shape.

UniProt P17405, sequence (P17405 whole entry, looked up): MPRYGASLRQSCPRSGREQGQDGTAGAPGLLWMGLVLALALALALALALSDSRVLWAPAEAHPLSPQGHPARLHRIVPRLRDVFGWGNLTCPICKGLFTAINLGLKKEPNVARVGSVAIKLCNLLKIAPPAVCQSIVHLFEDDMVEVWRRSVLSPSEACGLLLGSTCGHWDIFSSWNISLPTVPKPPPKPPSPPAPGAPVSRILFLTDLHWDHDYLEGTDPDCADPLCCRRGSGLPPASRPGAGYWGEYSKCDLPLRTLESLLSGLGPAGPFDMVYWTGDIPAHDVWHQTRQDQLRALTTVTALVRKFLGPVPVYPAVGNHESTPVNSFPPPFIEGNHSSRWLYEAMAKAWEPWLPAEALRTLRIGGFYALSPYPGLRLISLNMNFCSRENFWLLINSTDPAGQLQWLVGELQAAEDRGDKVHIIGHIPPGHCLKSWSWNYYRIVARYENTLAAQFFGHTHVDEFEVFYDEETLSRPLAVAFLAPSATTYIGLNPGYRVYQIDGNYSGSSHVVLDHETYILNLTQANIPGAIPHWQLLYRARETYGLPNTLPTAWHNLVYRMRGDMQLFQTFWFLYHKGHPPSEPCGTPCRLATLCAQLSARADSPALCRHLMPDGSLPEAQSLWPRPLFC

Structure (SMILES) | Potency
COc1cc2cnc(-c3ccccc3)c(-c3cccc(C(F)(F)F)c3)c2cc1OC | inconclusive: 89.1 µM [inhibitor, partial curve]
CC1(C)CC2CC(C)(CN2C(=O)COC(=O)CNC(=O)c2ccc(Cl)c(Cl)c2)C1 (stereo unspecified) | inconclusive: 89.1 µM [inhibitor, single point]
CCc1ccc(Nc2nnc(SCC(=O)Nc3sccc3C(N)=O)s2)cc1 | inconclusive: 100 µM [inhibitor, partial curve, poor fit]
Cc1ccc(S(=O)(=O)CNC(=S)c2ccc3ccccc3c2)cc1 | inconclusive: 200 µM [inhibitor, partial curve, poor fit]
CCOc1ccc(C2C3=C(Nc4nc(N)[nH]c(=O)c42)c2ccccc2C3=O)cc1 (stereo unspecified) | inconclusive: 1120 µM [inhibitor, partial curve, poor fit]
COc1cc(/C=C2\SC(=S)N(NC(=O)c3ccc(O)c(OC)c3)C2=O)ccc1O | inconclusive: 44.7 µM [inhibitor, partial curve]
CCn1nc(NC(=O)c2ccccn2)c2cc3cccc(C)c3nc21 | inactive
CCCOC(=O)C1=C(C)NC2=C(C(=O)CCC2)C1c1cccc(OC)c1OC (stereo unspecified) | inactive
O=C(C1CCC(CNS(=O)(=O)c2cccs2)CC1)N1CCN(c2ccc(Cl)cc2)CC1 (stereo unspecified) | inconclusive: 79.4 µM [inhibitor, partial curve, poor fit]
Cc1ccc(OCCNc2cc(N3CCN(CCO)CC3)ccc2[N+](=O)[O-])cc1C | inconclusive: 100 µM [inhibitor, single point]
COc1ccc(-c2csc(NC(=O)c3ccc(OCC(=O)N4CCOCC4)c(OC)c3)n2)cc1 | inconclusive: 112 µM [inhibitor, partial curve, poor fit]
Cc1nn(-c2ccccc2)c(C)c1/C=N\NS(=O)(=O)c1ccc(Cl)cc1 | inconclusive: 112 µM [inhibitor, partial curve, poor fit]
CC(=C\c1ccco1)/C=C(\C#N)C(=O)NCCc1c[nH]c2ccccc12 | inactive
O=C(O)CN1C(=O)/C(=C\c2cccc(OCc3ccc(Cl)cc3Cl)c2)SC1=S | inconclusive: 79.4 µM [inhibitor, single point]
CCOC(=O)CCCC(=O)Nc1ncnc2c1C(c1ccccc1)c1c(ccc3ccccc13)O2 (stereo unspecified) | inconclusive: 79.4 µM [inhibitor, single point]
Cc1scc(C(=O)N/N=C/c2ccc(OC(C)C)cc2)c1C | inactive
COCCNC(=O)/C(C#N)=C/c1cc(Br)c(O)c(OC)c1 | inactive
O=C(Cn1cc(-c2nnnn2-c2ccc(Cl)cc2)c(=O)c2ccccc21)c1ccccc1 | inconclusive: 891 µM [inhibitor, partial curve, poor fit]
O=C(Nc1ccccc1)OCC1COC(c2ccccc2)(c2ccccc2)O1 (stereo unspecified) | inconclusive: 100 µM [inhibitor, partial curve, poor fit]
O=C(NCc1cccc(Br)c1)C1CC2Cn3c(nc4ccccc43)C2N1c1ccccc1 (stereo unspecified) | inconclusive: 79.4 µM [inhibitor, partial curve, poor fit]
COc1cc(-c2nc(-c3ccccc3)c(-c3ccc(F)cc3)[nH]2)cc2c1OCO2 | inconclusive: 79.4 µM [inhibitor, single point]

Structure (SMILES) | Potency
CCCCCCCCCCCCCCCC[n+]1ccc(/C=N/O)cc1 | inconclusive: 63.1 µM [inhibitor, single point]
COc1cc(/C=N/NC(=O)c2ccc(CSc3nc4ccccc4[nH]3)cc2)cc(OC)c1OC | inconclusive: 355 µM [inhibitor, partial curve, poor fit]
Cc1cc(C)c2cc(C#N)c(NCCOC(=O)c3ccccc3C)nc2c1 | inactive
COc1ccc(-c2cc(C(F)(F)F)nc(SCC(=O)NCc3cccs3)n2)cc1 | inactive
COc1cc(-c2cc(C(=O)Nc3c(Cl)cc(Cl)cc3Cl)c3ccccc3n2)cc(OC)c1OC | inconclusive: 1260 µM [inhibitor, partial curve, poor fit]
CCCCCCCCCCn1c2c(c(=N)c3c1CCC3)CCC2 | inconclusive: 89.1 µM [inhibitor, single point]
Cc1cccc(NCc2nc3ccccc3n2Cc2ccccc2)c1 | inconclusive: 112 µM [inhibitor, partial curve, poor fit]
Cc1ccc(N=Nc2ccc(O)c(P(=O)(c3ccccc3)c3ccccc3)c2)cc1 | inconclusive: 158 µM [inhibitor, partial curve]
CNC(=O)c1ccsc1NC(=O)c1ccc(S(=O)(=O)N2CCc3ccccc32)cc1 | inconclusive: 1780 µM [inhibitor, partial curve, poor fit]
Cn1cccc1Cc1nnc(SCC(=O)Nc2ccc(F)cc2F)n1-c1ccc(F)cc1 | inactive
COc1cccc(OCCn2c(C)c(/C=N/n3cnnc3)c3ccccc32)c1 | inconclusive: 100 µM [inhibitor, partial curve]
CC(C)N1C(=O)C(O)(C2COC(C)(C)CC2=O)c2ccccc21 (stereo unspecified) | inactive
Cc1ccc(C)c(N2N=C(C(=O)Nc3ccccc3N3CCCC3)CCC2=O)c1 | inactive
FC(F)(F)c1cccc(N2CCN(c3ccc4nnc(-c5ccccc5)n4n3)CC2)c1 | inconclusive: 79.4 µM [inhibitor, partial curve, poor fit]
CC1CC(C)CN(C(=O)c2cc(S(=O)(=O)N3CCCCC3)ccc2Cl)C1 (stereo unspecified) | inactive
COc1ccc(C=NNc2ccc(S(=O)(=O)Nc3ccccc3C(=O)O)cc2[N+](=O)[O-])c(OC)c1 | inconclusive: 89.1 µM [inhibitor, single point]
CCCCc1ccc(NC(=O)N2CCNC(=O)C2CC(=O)Nc2ccsc2C(=O)OC)cc1 (stereo unspecified) | inconclusive: 25.1 µM [inhibitor, partial curve, poor fit]
CN(C)c1nc(N(C)C)nc(N(C#N)Cc2ccc(Cl)cc2)n1 | inconclusive: 794 µM [inhibitor, partial curve, poor fit]
COc1ccc(NC(=O)CNCc2ccc(Cl)cc2)cc1S(=O)(=O)N1CCOCC1 | inactive
COc1cc(OCc2ccccc2)c(C(=O)/C=C/c2ccc3c(c2)OCO3)c(OC)c1OC | inactive
C/C(=N\N=C(c1ccccc1)c1ccccc1)c1cccs1 | inconclusive: 316 µM [inhibitor, partial curve, poor fit]

Structure (SMILES) | Potency
COc1ccc(/C=N/NC(=O)c2[nH]c3ccc(Br)cc3c2-c2ccccc2)c(C(=O)O)c1OC | inconclusive: 7.94 µM [inhibitor, partial curve, poor fit]
CCCCCCCCCC[N+](C)(C)CC/C=C1/c2ccccc2Sc2ccc(Cl)cc21 | inconclusive: 70.8 µM [inhibitor, partial curve]
CN(C)c1ccc(S(=O)(=O)N(C)C)cc1NC(=O)Cc1cccc2ccccc12 | inconclusive: 100 µM [inhibitor, partial curve, poor fit]
Cc1ccc(Nc2nc(N)nc(CN3CCN(c4ccccc4)CC3)n2)cc1Cl | inconclusive: 178 µM [inhibitor, partial curve, poor fit]
O=C(CCCn1c(=S)[nH]c2cc3c(cc2c1=O)OCO3)N1CCN(c2ccccc2)CC1 | inactive
COc1cc(/C=N/Nc2ccc(Cl)c(C(=O)O)c2)ccc1OC(=O)c1ccccc1F | inconclusive: 100 µM [inhibitor, partial curve]
O=C(CN(CCc1ccccc1)Cc1ccccc1)Oc1ccccc1P(=O)(O)O | inconclusive: 11.2 µM [inhibitor, partial curve, poor fit]
COc1ccc(/C=N/NC(=O)c2cccnc2)cc1CSc1nc2ccccc2s1 | inconclusive: 89.1 µM [inhibitor, partial curve, poor fit]
CN1C(=O)/C(=C/c2ccccc2OCc2ccccc2)NC1=S | inconclusive: 89.1 µM [inhibitor, single point]
CCOC(=O)c1sc2nc(C)cc(-c3ccccc3)c2c1N | inactive
CCOc1cc(N(CC)CC)ccc1/C=C(/C#N)c1nc2ccccc2[nH]1 | inconclusive: 70.8 µM [inhibitor, partial curve]
Cc1ccc(C)c(N=Nc2nc3ccccc3n2C)c1 | inconclusive: 355 µM [inhibitor, partial curve, poor fit]
CCCCCCOc1ccc(/C(C)=N/NC2=NCCN2)cc1[N+](=O)[O-] | inconclusive: 89.1 µM [inhibitor, partial curve]
O=C(CSc1ncnc2ccccc12)Nc1cccc(S(=O)(=O)N2CCCC2)c1 | inconclusive: 251 µM [inhibitor, partial curve, poor fit]
CC(C)(C)c1ccc(NC(=O)c2cc[n+]([O-])cc2)cc1 | inconclusive: 447 µM [inhibitor, partial curve, poor fit]
O=[N+]([O-])c1cccc(NNS(=O)(=O)c2ccccc2F)c1 | inconclusive: 31.6 µM [inhibitor, single point]
CC(C)N(C(=O)[C@H]1C[C@H](CC(=O)NCCC2=CCCCC2)C(=O)N2CCc3c([nH]c4cc(-c5ccco5)ccc34)[C@]12C)C(C)C | inconclusive: 141 µM [inhibitor, partial curve, poor fit]
CC1(NC(=O)CC(c2ccccc2)(c2ccccc2)c2ccccc2)CCN(CCCc2ccccc2)C1=O (stereo unspecified) | inconclusive: 224 µM [inhibitor, partial curve, poor fit]
COc1ccc(CNC[C@@H](CCCCN(C)Cc2ccc(OC)cc2)N2C[C@H](c3ccccc3)N(CCc3ccc(Cl)c(Cl)c3)C(=O)C2=O)cc1 | inactive
